Results published in PMC10185812.
Positions count from the first letter of the chain named. Results are given in words; binding and its absence hold for the method and conditions named. Binding seen in cells or lysates may run through a third protein. Some results given as binding are weak or reduced against the parent protein; the word gives no strength. For part of these data: Where a sequence is shown, tags or fusion partners need not be part of it.

Columns and labels:
[1] = molecular target: T1, 3xHA-C21ORF2 R73P (human) (UniProt O43822); test: co-IP; ARPE-19 transiently co-transfected with 3xHA-C21ORF2 (WT or mutants) and 3xFLAG-NEK1; immunoprecipitation with anti-HA (the legend also names anti-FLAG); immunoblotting
T1 sequence: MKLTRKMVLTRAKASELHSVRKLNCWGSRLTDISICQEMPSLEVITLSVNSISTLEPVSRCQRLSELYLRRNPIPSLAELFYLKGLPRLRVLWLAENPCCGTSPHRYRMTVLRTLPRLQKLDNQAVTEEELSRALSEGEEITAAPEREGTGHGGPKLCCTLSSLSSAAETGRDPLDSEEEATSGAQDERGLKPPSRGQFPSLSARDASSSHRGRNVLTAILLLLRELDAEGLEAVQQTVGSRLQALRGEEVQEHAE

3xHA-C21ORF2 (human) = molecular target: T2, 3xHA-C21ORF2 (human) (UniProt O43822); test: as above
T2 sequence: T1 sequence with P73R

[2] = molecular target: T3, 3xHA-C21ORF2 L224P (human) (UniProt O43822); test: as above
T3 sequence: T1 sequence with P73R, L224P

[3] = molecular target: T4, 3xHA-C21ORF2 T150I (human) (UniProt O43822); test: as above
T4 sequence: T1 sequence with P73R, T150I

[4] = molecular target: T5, C21ORF2 (endogenous) (human (endogenous in ARPE-19, HeLa, HEK293, U2-O-S)) (UniProt O43822); test: co-IP; ARPE-19 cell extracts; immunoprecipitation with in-house sheep antibodies against NEK1 or C21ORF2 (sheep IgG as control); 4°C; washes with 50 mM Tris pH 7.4, 500 mM NaCl, 1% Triton X-100; immunoblotting
T5 sequence: T1 sequence with P73R

[5] = molecular target: T6, C21ORF2 L224P (lentiviral, UbC promoter, in C21ORF2-KO cells) (human) (UniProt O43822); test: co-IP; NEK1-KO or C21ORF2-KO ARPE-19 cells transduced with lentivirus for WT or mutated NEK1 (CMV promoter) or C21ORF2 (UbC promoter); immunoprecipitation with antibodies against NEK1 or C21ORF2; immunoblotting
T6 sequence: T1 sequence with P73R, L224P

[6] = molecular target: T7, C21ORF2 R73P (lentiviral, UbC promoter, in C21ORF2-KO cells) (human) (UniProt O43822); test: as above
T7 sequence: T1 sequence

[7] = molecular target: T5, C21ORF2 (endogenous) (human (endogenous in ARPE-19, HeLa, HEK293, U2-O-S)); test: co-IP; pooled gel filtration fractions of ARPE-19 extract; three rounds of immunodepletion with antibodies against NEK1 or C21ORF2 or sheep IgG; 4°C; washes with 50 mM Tris pH 7.4, 500 mM NaCl, 1% Triton X-100; beads and supernatants immunoblotted
[8] = molecular target: T5, C21ORF2 (endogenous) (human (endogenous in ARPE-19, HeLa, HEK293, U2-O-S)); test: co-IP; HeLa, HEK293 and U2-O-S cell lysates; immunoprecipitation with in-house sheep anti-C21ORF2 or anti-NEK1 antibodies (sheep IgG beads as control); immunoblotting

Measured: binding

B1: 3xFLAG-NEK1 (protein, UniProt Q96PY6-3 1-1286)
chain: MEKYVRLQKIGEGSFGKAILVKSTEDGRQYVIKEINISRMSSKEREESRREVAVLANMKHPNIVQYRESFEENGSLYIVMDYCEGGDLFKRINAQKGVLFQEDQILDWFVQICLALKHVHDRKILHRDIKSQNIFLTKDGTVQLGDFGIARVLNSTVELARTCIGTPYYLSPEICENKPYNNKSDIWALGCVLYELCTLKHAFEAGSMKNLVLKIISGSFPPVSLHYSYDLRSLVSQLFKRNPRDRPSVNSILEKGFIAKRIEKFLSPQLIAEEFCLKTFSKFGSQPIPAKRPASGQNSISVMPAQKITKPAAKYGIPLAYKKYGDKKLHEKKPLQKHKQAHQTPEKRVNTGEERRKISEEAARKRRLEFIEKEKKQKDQIISLMKAEQMKRQEKERLERINRAREQGWRNVLSAGGSGEVKAPFLGSGGTIAPSSFSSRGQYEHYHAIFDQMQQQRAEDNEAKWKREIYGRGLPERGILPGVRPGFPYGAAGHHHFPDADDIRKTLKRLKAVSKQANANRQKGQLAVERAKQVEEFLQRKREAMQNKARAEGHMGILQNLAAMYGGRPSSSRGGKPRNKEEEVYLARLRQIRLQNFNERQQIKAKLRGEKKEANHSEGQEGSEEADMRRKKIESLKAHANARAAVLKEQLERKRKEAYEREKKVWEEHLVAKGVKSSDVSPPLGQHETGGSPSKQQMRSVISVTSALKEVGVDSSLTDTRETSEEMQKTNNAISSKREILRRLNENLKAQEDEKGKQNLSDTFEINVHEDAKEHEKEKSVSSDRKKWEAGGQLVIPLDELTLDTSFSTTERHTVGEVIKLGPNGSPRRAWGKSPTDSVLKILGEAELQLQTELLENTTIRSEISPEGEKYKPLITGEKKVQCISHEINPSAIVDSPVETKSPEFSEASPQMSLKLEGNLEEPDDLETEILQEPSGTNKDESLPCTITDVWISEEKETKETQSADRITIQENEVSEDGVSSTVDQLSDIHIEPGTNDSQHSKCDVDKSVQPEPFFHKVVHSEHLNLVPQVQSVQCSPEESFAFRSHSHLPPKNKNKNSLLIGLSTGLFDANNPKMLRTCSLPDLSKLFRTLMDVPTVGDVRQDNLEIDEIEDENIKEGPSDSEDIVFEETDTDLQELQASMEQLLREQPGEEYSEEEESVLKNSDVEPTANGTDVADEDDNPSSESALNEEWHSDNSDGEIASECECDSVFNHLEELRLHLEQEMGFEKFFEVYEKIKAIHEDEDENIEICSKIVQNILGNEHQHLYAKILHLVMADGAYQEDNDE
binds: [1] | 3xHA-C21ORF2 (human) | [2] | [3]

B2: NEK1 (endogenous) (protein, UniProt Q96PY6-3 1-1286)
chain: B1 chain
binds: [4] | [5] | [6] | [7] | [8]
